Numbering of substitutions follows the chain as printed; changes in the protein carry UniProt numbers. The list shows a part of the results.

T1: RBFOX1 RRM (Homo sapiens, UniProt Q9NWB1 109-208)
T1 sequence: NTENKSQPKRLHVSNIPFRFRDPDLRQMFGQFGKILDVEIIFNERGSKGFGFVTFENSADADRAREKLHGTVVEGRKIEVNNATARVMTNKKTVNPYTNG

B1: AGUUCUC (DNA:RNA)
RNA: GGGAGACCGGAAUUCAGAUUGUCCAGUUCUCUUAAAUCCCGUCGUAGCCACCA
DNA 1: CAATCTGAATTCCGGTCTCCC
DNA 2: TGGTGGCTACGACGGGATT
B2: CACGCGC (DNA:RNA)
RNA: B1 RNA with A25C, G26A, U27C, U28G, U30G
DNA 1: CAATCTGAATTCCGGTCTCCC
DNA 2: TGGTGGCTACGACGGGATT
B3: ACUUAUG (DNA:RNA)
RNA: B1 RNA with G26C, C29A, C31G
DNA 1: CAATCTGAATTCCGGTCTCCC
DNA 2: TGGTGGCTACGACGGGATT
B4: UGGACAU (DNA:RNA)
RNA: B1 RNA with A25U, U27G, U28A, U30A, C31U
DNA 1: CAATCTGAATTCCGGTCTCCC
DNA 2: TGGTGGCTACGACGGGATT
B5: GAGCAUU (DNA:RNA)
RNA: B1 RNA with A25G, G26A, U27G, U28C, C29A, C31U
DNA 1: CAATCTGAATTCCGGTCTCCC
DNA 2: TGGTGGCTACGACGGGATT
B6: AUUUUUG (DNA:RNA)
RNA: B1 RNA with G26U, C29U, C31G
DNA 1: CAATCTGAATTCCGGTCTCCC
DNA 2: TGGTGGCTACGACGGGATT
B7: UAGAUAC (DNA:RNA)
RNA: B1 RNA with A25U, G26A, U27G, U28A, C29U, U30A
DNA 1: CAATCTGAATTCCGGTCTCCC
DNA 2: TGGTGGCTACGACGGGATT
B8: UUGACCG (DNA:RNA)
RNA: B1 RNA with A25U, G26U, U27G, U28A, U30C, C31G
DNA 1: CAATCTGAATTCCGGTCTCCC
DNA 2: TGGTGGCTACGACGGGATT
B9: GACAAGC (DNA:RNA)
RNA: B1 RNA with A25G, G26A, U27C, U28A, C29A, U30G
DNA 1: CAATCTGAATTCCGGTCTCCC
DNA 2: TGGTGGCTACGACGGGATT
B10: ACUAUGG (DNA:RNA)
RNA: B1 RNA with G26C, U28A, C29U, U30G, C31G
DNA 1: CAATCTGAATTCCGGTCTCCC
DNA 2: TGGTGGCTACGACGGGATT
B11: AGGGGCU (DNA:RNA)
RNA: B1 RNA with U27G, U28G, C29G, U30C, C31U
DNA 1: CAATCTGAATTCCGGTCTCCC
DNA 2: TGGTGGCTACGACGGGATT
B12: GCCAACU (DNA:RNA)
RNA: GGGAGACCGGAAUUCAGAUUGUCCGCCAACUUUAAAUCCCGUCGUAGCCACCA
DNA 1: CAATCTGAATTCCGGTCTCCC
DNA 2: TGGTGGCTACGACGGGATT
B13: UAAGCGU (DNA:RNA)
RNA: B1 RNA with A25U, G26A, U27A, U28G, U30G, C31U
DNA 1: CAATCTGAATTCCGGTCTCCC
DNA 2: TGGTGGCTACGACGGGATT
B14: UCCUGAU (DNA:RNA)
RNA: B12 RNA with G25U, A28U, A29G, C30A
DNA 1: CAATCTGAATTCCGGTCTCCC
DNA 2: TGGTGGCTACGACGGGATT
B15: GCAAUCU (DNA:RNA)
RNA: B12 RNA with C27A, A29U
DNA 1: CAATCTGAATTCCGGTCTCCC
DNA 2: TGGTGGCTACGACGGGATT
B16: CGGACGA (DNA:RNA)
RNA: B1 RNA with A25C, U27G, U28A, U30G, C31A
DNA 1: CAATCTGAATTCCGGTCTCCC
DNA 2: TGGTGGCTACGACGGGATT
B17: GCUCGUU (DNA:RNA)
RNA: B12 RNA with C27U, A28C, A29G, C30U
DNA 1: CAATCTGAATTCCGGTCTCCC
DNA 2: TGGTGGCTACGACGGGATT
B18: AAGGACC (DNA:RNA)
RNA: B1 RNA with G26A, U27G, U28G, C29A, U30C
DNA 1: CAATCTGAATTCCGGTCTCCC
DNA 2: TGGTGGCTACGACGGGATT
B19: AUGGAGA (DNA:RNA)
RNA: B1 RNA with G26U, U27G, U28G, C29A, U30G, C31A
DNA 1: CAATCTGAATTCCGGTCTCCC
DNA 2: TGGTGGCTACGACGGGATT
B20: CGGGGCA (DNA:RNA)
RNA: B1 RNA with A25C, U27G, U28G, C29G, U30C, C31A
DNA 1: CAATCTGAATTCCGGTCTCCC
DNA 2: TGGTGGCTACGACGGGATT
B21: UCUUGGG (DNA:RNA)
RNA: B1 RNA with A25U, G26C, C29G, U30G, C31G
DNA 1: CAATCTGAATTCCGGTCTCCC
DNA 2: TGGTGGCTACGACGGGATT
B22: GCUCGAA (DNA:RNA)
RNA: B12 RNA with C27U, A28C, A29G, C30A, U31A
DNA 1: CAATCTGAATTCCGGTCTCCC
DNA 2: TGGTGGCTACGACGGGATT
B23: UCCGCCU (DNA:RNA)
RNA: B12 RNA with G25U, A28G, A29C
DNA 1: CAATCTGAATTCCGGTCTCCC
DNA 2: TGGTGGCTACGACGGGATT
B24: GGCAUCC (DNA:RNA)
RNA: B12 RNA with C26G, A29U, U31C
DNA 1: CAATCTGAATTCCGGTCTCCC
DNA 2: TGGTGGCTACGACGGGATT
B25: CGUCGAA (DNA:RNA)
RNA: B1 RNA with A25C, U28C, C29G, U30A, C31A
DNA 1: CAATCTGAATTCCGGTCTCCC
DNA 2: TGGTGGCTACGACGGGATT
B26: GGGUGCA (DNA:RNA)
RNA: B1 RNA with A25G, U27G, C29G, U30C, C31A
DNA 1: CAATCTGAATTCCGGTCTCCC
DNA 2: TGGTGGCTACGACGGGATT
B27: CGUCCUG (DNA:RNA)
RNA: B1 RNA with A25C, U28C, C31G
DNA 1: CAATCTGAATTCCGGTCTCCC
DNA 2: TGGTGGCTACGACGGGATT
B28: UUUUCUG (DNA:RNA)
RNA: B1 RNA with A25U, G26U, C31G
DNA 1: CAATCTGAATTCCGGTCTCCC
DNA 2: TGGTGGCTACGACGGGATT
B29: AGAUGAC (DNA:RNA)
RNA: B1 RNA with U27A, C29G, U30A
DNA 1: CAATCTGAATTCCGGTCTCCC
DNA 2: TGGTGGCTACGACGGGATT
B30: UAGAAUU (DNA:RNA)
RNA: B12 RNA with G25U, C26A, C27G, C30U
DNA 1: CAATCTGAATTCCGGTCTCCC
DNA 2: TGGTGGCTACGACGGGATT
B31: AGAUCAU (DNA:RNA)
RNA: B1 RNA with U27A, U30A, C31U
DNA 1: CAATCTGAATTCCGGTCTCCC
DNA 2: TGGTGGCTACGACGGGATT

The assay deals with T1, RBFOX1 RRM. Description: EMSA; HiTS-Eq, 1 nM pool, 10 min; buffer printed only for the single-RNA assays: 10 mM Tris pH 7.5, 150 mM NaCl, 3.4 mM EDTA, 0.001% NP-40, 30 C. The conditions noted are these: tags: His6 N-terminal (pET28a); label: 5' 32P. The method in brief: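 Purified RbFox RRM, wild type or mutant, was incubated for 10 min in 50 µL with 1 nM of a 5′-radiolabelled RNA pool carrying 7 randomized nucleotides, whose flanks were annealed to DNA oligonucleotides, over a series of increasing protein concentrations. Unbound RNA was resolved on 8% native PAGE, cut out, reverse-transcribed, barcoded by PCR and sequenced on an Illumina HiSeq 2500. Relative association constants were derived from changes in read counts for each RNA species versus the control reaction and normalised to the cognate motif.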
Background: In EMSA bound probe runs differently from free probe, usually more slowly.
On to B1, for which the binding signal was 0.0138 KA relative to UGCAUGU.
As for B2, the binding signal was 0.00896 KA relative to UGCAUGU.
Consider B3, for which the binding signal is 0.0082 KA relative to UGCAUGU.
With B4, the binding signal was 0.0171 KA relative to UGCAUGU.
With B5, the binding signal is 0.0186 KA relative to UGCAUGU.
Take B6: the binding signal was 0.0181 KA relative to UGCAUGU.
Turning to B7, the binding signal is 0.00753 KA relative to UGCAUGU.
With B8, the binding signal was 0.0188 KA relative to UGCAUGU.
For B9, the binding signal is 0.0124 KA relative to UGCAUGU.
As to B10, the binding signal is 0.00554 KA relative to UGCAUGU.
In the case of B11 it was 0.0239 KA relative to UGCAUGU.
In the case of B12 it was 0.00345 KA relative to UGCAUGU.
Take B13: the binding signal is 0.013 KA relative to UGCAUGU.
The same measure for B14: 0.0108 KA relative to UGCAUGU.
The same measure for B15: 0.00618 KA relative to UGCAUGU.
B16: the binding signal was 0.0171 KA relative to UGCAUGU.
The same measure for B17: 0.0239 KA relative to UGCAUGU; for B18: 0.00475 KA relative to UGCAUGU.
For B19, the binding signal is 0.00682 KA relative to UGCAUGU.
In the case of B20 it was 0.0261 KA relative to UGCAUGU; in that of B21, 0.00663 KA relative to UGCAUGU.
Turning to B22, the binding signal is 0.0241 KA relative to UGCAUGU.
Regarding B23, the binding signal was 0.00624 KA relative to UGCAUGU.
As for B24, the binding signal was 0.00705 KA relative to UGCAUGU.
For the molecule B25, the binding signal was 0.00933 KA relative to UGCAUGU.
Turning to B26, the binding signal is 0.0415 KA relative to UGCAUGU.
In the case of B27 it was 0.0127 KA relative to UGCAUGU; in that of B28, 0.0286 KA relative to UGCAUGU; in that of B29, 0.008 KA relative to UGCAUGU.
On to B30, for which the binding signal is 0.00627 KA relative to UGCAUGU.
The same measure for B31: 0.000692 KA relative to UGCAUGU.

For the origin of these results see publication PMC9911399, “Two distinct binding modes provide the RNA-binding protein RbFox with extraordinary sequence specificity”.
